# Some of the results follow. At the low end of the ranking the order means little. Measured with an extract: partners may take part in the binding.
# Biological target: T1, HNF4alpha2 (COS-7 nuclear extract) (UniProt P41235)
# T1 sequence: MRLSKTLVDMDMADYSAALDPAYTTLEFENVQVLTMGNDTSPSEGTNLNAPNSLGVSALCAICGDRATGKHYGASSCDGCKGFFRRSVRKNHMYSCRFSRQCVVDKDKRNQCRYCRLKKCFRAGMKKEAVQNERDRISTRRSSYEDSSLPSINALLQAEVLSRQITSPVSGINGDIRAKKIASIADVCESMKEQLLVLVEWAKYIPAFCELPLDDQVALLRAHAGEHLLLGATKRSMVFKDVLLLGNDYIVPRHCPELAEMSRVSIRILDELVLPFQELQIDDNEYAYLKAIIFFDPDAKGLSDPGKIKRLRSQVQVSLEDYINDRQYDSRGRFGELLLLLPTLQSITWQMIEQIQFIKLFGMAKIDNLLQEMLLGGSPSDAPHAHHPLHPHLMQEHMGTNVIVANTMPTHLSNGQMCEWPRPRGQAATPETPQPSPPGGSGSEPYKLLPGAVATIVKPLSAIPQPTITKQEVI
# Assay: protein-binding microarray
# Conditions: COS-7 nuclear extract on double-stranded Agilent 4x180k PBM; binding buffer, salt, pH and temperature not given; high values mean tight binding; double strand, one strand shown; sequences stand for … in …GCCTAGGGAGATTAGAGTATCGGTCGA
row,Sequence,binding signal (log2 normalized intensity)
1,AATGGACATCTCTAGGAACTCTGAGCTCTT,-1.07
2,TACTCCTCCTGGCTTCTGGACTATGCCTTG,2.99
3,GGCTTTTGGGCCCTGTCTGATAAGGGTGTT,1.12
4,TTGTTGGGTCAGTTTATCGAAAATCCCCCA,4.01
5,GGTGTGCTGTTAGCTGAAGGACGTCAGAAC,1.25
6,GGGGGCAAGGTACACCATCTATGAGCTCAA,1.28
7,CATTTGGGGTCAGATAATTCTTTGCTGTGG,1.93
8,ATGGGATGACCTTTGAGCAATAGGAAATGG,4.18
9,CAGATCACAAAGGAGCTTGTAAGCCACAGT,-1.14
10,TTGTACTTTGGAGTTTACTTTAGATGTGTT,2.86
11,ATCCAACCTTCTCCCACTTCCCTGCCTTTG,0.905
12,TTTGTCGCCTCTGACTTCTGACTTTTACCC,2.23
13,GGCTCAATGAGGTCAATAGTCCAGATACAG,3.53
14,GTGATACTCAAGGCATTTTCTTGTTGACTT,1.02
15,TGTGAAGAGTGTGGACTTTCACCTCCACCA,6.06
16,GGAAAACCAGAGACCTTTGTTCACTTGTTT,2.52
17,GATACTGATAACATGAGGTAGAGGGACACT,-0.851
18,ACCATGAGGTGACGGCTAAGAGAAATCCAC,-1.2
19,TCCCCAGAGCCCCCTTGATGCATCAGACCC,4.63
20,ATGTAATGTATGCATAGACTGCCCAGAATT,0.478
21,AGTTTTGAGTGTGTTTCTTGTTTCAGAGTA,1.87
22,CTACCTTTGCTCTTAATTCAATGGGGTGGG,1.48
23,GCTCACTATTAACTTTTCCATGTCCAAAGG,2.39
24,TCGGCTCTCAGCGGAACTTTCCTCTCCGCG,-1.13

row,Sequence,binding signal (log2 normalized intensity)
1,CTTTCCTGTTGGGGAGCAAAGGTTAGCAAG,3.85
2,CTCCTGCGGTCCGGACTCTGCCCCACAATT,3.76
3,GTCTCAGGTGGAGATAAGGAATTTGTTAAG,0.804
4,GTCAAACTTTGGACCCACTGCAGGATTGGA,3.52
5,CTTCACTTGTAGGAGACCTTGAGGATAAGT,1.39
6,CTATTCTCTAAACTCTGGGCTCTATTTGGA,0.344
7,TAATTAACTTGTGTTCAGAGCTTGCTGCAT,-0.839
8,CTTATCTCAAGAATTGTCTAACCGCAGCAA,-1.15
9,CTCTGCCTGCGTCTTATATAAGCTATTACT,-0.778
10,CTCCGCCCCATTGTCTTAGGCCTCGGGAGT,1.51
11,GTACTCCTCACTGTTGTGACATACTGCCTT,1.01
12,GTTATCCTTGTTCTATGTTCACATCTCCTC,1.41
13,ATGATAACCCAGTGCAATGCCTAAACCAGG,-1.08
14,TATCAGCCTGTGACAAAGTCCATCTGGGCA,3.25
15,GCCGCCGCCGTGGGAGAGGCCGCCCCCTGC,4.07
16,TGATAGCCTTTTACCTTGGCAGCCACTGAG,-0.876
17,CCCAGAAACACTGAACCTTGTCCCACTCTT,2.17
18,TGCTGGGCTGCATTCCCAGATGGTTAGGTA,-0.0978
19,CCAAAACTCTCTCTCTGTGTCACATACACC,0.462
20,GGTCACACTGCACCTGCCTGAACAAGTCCA,-1.17
21,AACCTGACTGCGCTCCCAGAAGCCTCCGGT,-1.16
22,GTCACCATAAAACATTCTATTCTATCTGTA,-1.17
23,TGAGATAAAAAGAAGCTTGGTATGTCTGAT,1.34
24,ATTCTTTGCCATGACCTTTGAAGCCCAGAA,4.66

row,Sequence,binding signal (log2 normalized intensity)
1,CATTGATCTAACAGGAGGTGGAGCTCAGGA,-1.08
2,TTCAGGGCAGAAGAGGTTATCACAGGCTTG,-0.663
3,GTGAGAAGAGAAACACATGCAATCACACTA,-0.984
4,GTGGCTACCTGTGCAGATATTTAACCTTTG,4.11
5,TTATGTACCACCGTATTCCTAGCTCCTAGC,-1.11
6,GGCAACAGTTTTCTGGGATGCCCAAGGAAT,-1.11
7,CACCTGATTCAATGTCTGGAAGTTCTTCCT,0.075
8,CTGCAGTTCAAAGGCAATATCACTTGTTTG,0.442
9,TATTTCCACTGAGGTCAAGATAAGATACGA,0.592
10,CCAGGGAAGCTGGTAGCATGGCTCAGTCCA,-1.14
11,CTTGAGTAGCTGGGACTACAGGCAGGCACC,-1.23
12,TGGTGTGTGTGTGTGTGTTTTGTGCCTGTT,3.08
13,GGAGAAGTTTTATGGCAGGGTCGGAATGTC,1.55
14,GGGCAATTGGTTTCCGCTAAGTCCAAAGGT,3.51
15,GCTGTTTTTCCAGTTTTTGTTTGCACCTCA,1.69
16,TGACCTGTGATAAGAAATGAATGTCACTTT,1.62
17,ACTTTGAACCAAGATATGCTAACATCCCTT,-1.35
18,CCACTAGAGAGACCGTCCCTGGGTACAACT,0.737
19,AGGGGGGAGAAATTAAAGCACATACTTCTT,-0.828
20,CCTTATTCTTAACAAGCTGAGCACCAGAAA,-1.14
21,CCTGCTGAGCCCAATCTAGCAAAAATCCTG,-1.04
22,ACATTTTTATCCTTTTTTGAAGGTTAAAGT,2.66
23,TCAACTAAGTGTTATCTAAATTAGATATGG,1.21
24,GGAATTTGCCCTGTGGTCTAGCTTGTTCTC,2.32

# From publication PMC10726135
